According to article PMC8542038:
No constants are given. Whether binding was seen depends on the method and setting. Binding seen in cells or lysates may run through a third protein. Some entries that bind do so weakly or less than the wild type. For some of these results: Tags and fused reporters may be left off the sequences shown.

The chains behind the UniProt entries cited, without tags or fusion partners.
UniProt Q9UQE7: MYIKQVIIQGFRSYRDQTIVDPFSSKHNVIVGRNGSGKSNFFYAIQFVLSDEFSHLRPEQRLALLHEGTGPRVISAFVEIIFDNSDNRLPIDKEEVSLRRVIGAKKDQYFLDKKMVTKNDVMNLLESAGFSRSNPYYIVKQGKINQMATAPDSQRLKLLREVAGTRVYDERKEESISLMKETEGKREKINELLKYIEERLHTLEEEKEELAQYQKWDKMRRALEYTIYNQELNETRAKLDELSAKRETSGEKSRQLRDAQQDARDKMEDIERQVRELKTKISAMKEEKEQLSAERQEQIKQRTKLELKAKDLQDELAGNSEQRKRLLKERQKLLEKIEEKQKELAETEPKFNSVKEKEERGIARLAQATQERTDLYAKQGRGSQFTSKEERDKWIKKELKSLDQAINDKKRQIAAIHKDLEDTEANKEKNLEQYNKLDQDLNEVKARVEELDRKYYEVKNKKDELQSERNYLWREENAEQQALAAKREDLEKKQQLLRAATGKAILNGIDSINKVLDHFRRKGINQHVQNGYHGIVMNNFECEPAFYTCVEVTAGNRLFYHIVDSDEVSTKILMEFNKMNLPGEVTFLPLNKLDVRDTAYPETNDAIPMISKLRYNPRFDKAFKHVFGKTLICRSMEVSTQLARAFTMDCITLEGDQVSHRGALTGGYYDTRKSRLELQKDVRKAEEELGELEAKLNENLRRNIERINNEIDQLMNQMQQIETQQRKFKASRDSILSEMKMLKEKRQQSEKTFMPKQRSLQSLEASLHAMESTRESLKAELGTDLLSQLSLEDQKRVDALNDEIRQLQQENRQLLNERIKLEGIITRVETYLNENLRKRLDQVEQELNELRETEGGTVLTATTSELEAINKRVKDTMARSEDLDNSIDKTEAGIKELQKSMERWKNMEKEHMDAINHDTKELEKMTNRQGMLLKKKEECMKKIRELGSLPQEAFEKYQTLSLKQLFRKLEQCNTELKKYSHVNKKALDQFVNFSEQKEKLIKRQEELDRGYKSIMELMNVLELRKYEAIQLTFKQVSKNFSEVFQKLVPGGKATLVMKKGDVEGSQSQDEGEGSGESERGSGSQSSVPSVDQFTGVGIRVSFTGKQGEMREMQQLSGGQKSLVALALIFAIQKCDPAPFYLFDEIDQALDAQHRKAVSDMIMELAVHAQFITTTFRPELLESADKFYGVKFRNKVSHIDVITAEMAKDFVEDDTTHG
UniProt P51532: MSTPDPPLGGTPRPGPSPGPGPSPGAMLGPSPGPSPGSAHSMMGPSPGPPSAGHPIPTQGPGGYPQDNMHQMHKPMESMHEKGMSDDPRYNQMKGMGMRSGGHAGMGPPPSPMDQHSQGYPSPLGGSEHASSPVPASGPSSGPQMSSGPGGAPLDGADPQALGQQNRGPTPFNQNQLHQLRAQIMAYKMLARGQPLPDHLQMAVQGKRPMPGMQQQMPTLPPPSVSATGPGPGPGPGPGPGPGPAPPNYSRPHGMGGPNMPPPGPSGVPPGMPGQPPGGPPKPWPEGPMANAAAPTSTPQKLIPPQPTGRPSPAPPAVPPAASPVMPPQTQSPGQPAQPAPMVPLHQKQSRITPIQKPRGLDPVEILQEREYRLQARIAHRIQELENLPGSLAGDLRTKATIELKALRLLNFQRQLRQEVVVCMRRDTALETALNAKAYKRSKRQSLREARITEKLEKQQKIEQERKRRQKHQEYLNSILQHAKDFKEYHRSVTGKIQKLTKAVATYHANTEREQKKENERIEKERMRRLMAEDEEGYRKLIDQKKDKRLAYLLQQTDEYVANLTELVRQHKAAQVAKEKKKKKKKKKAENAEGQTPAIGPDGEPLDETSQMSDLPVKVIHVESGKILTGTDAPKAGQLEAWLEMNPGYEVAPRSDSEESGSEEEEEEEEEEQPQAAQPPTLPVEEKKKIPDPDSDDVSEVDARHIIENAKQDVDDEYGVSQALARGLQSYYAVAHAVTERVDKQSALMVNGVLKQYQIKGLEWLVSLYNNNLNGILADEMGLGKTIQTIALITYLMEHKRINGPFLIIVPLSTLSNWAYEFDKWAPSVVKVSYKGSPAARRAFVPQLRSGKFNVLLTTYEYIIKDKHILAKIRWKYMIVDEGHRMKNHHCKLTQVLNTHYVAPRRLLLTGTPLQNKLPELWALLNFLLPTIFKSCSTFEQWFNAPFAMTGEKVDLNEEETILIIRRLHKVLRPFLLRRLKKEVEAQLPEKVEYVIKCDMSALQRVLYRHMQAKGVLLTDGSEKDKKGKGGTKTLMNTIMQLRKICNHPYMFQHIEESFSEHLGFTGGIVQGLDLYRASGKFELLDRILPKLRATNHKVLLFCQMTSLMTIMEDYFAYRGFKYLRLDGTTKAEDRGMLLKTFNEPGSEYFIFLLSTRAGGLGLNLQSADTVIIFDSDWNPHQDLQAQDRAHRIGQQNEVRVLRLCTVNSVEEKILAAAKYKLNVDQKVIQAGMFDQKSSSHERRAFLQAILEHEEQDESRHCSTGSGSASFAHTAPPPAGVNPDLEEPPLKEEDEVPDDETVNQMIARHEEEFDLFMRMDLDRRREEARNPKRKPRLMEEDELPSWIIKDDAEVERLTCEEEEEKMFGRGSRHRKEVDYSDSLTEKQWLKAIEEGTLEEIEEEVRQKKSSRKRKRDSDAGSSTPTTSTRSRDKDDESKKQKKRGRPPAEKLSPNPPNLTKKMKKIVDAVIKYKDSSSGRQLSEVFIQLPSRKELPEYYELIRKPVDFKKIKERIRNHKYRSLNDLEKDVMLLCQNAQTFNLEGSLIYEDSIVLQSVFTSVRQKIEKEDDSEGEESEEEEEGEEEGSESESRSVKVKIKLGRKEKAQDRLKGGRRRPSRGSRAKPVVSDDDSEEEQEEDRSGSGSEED
UniProt Q3TKT4: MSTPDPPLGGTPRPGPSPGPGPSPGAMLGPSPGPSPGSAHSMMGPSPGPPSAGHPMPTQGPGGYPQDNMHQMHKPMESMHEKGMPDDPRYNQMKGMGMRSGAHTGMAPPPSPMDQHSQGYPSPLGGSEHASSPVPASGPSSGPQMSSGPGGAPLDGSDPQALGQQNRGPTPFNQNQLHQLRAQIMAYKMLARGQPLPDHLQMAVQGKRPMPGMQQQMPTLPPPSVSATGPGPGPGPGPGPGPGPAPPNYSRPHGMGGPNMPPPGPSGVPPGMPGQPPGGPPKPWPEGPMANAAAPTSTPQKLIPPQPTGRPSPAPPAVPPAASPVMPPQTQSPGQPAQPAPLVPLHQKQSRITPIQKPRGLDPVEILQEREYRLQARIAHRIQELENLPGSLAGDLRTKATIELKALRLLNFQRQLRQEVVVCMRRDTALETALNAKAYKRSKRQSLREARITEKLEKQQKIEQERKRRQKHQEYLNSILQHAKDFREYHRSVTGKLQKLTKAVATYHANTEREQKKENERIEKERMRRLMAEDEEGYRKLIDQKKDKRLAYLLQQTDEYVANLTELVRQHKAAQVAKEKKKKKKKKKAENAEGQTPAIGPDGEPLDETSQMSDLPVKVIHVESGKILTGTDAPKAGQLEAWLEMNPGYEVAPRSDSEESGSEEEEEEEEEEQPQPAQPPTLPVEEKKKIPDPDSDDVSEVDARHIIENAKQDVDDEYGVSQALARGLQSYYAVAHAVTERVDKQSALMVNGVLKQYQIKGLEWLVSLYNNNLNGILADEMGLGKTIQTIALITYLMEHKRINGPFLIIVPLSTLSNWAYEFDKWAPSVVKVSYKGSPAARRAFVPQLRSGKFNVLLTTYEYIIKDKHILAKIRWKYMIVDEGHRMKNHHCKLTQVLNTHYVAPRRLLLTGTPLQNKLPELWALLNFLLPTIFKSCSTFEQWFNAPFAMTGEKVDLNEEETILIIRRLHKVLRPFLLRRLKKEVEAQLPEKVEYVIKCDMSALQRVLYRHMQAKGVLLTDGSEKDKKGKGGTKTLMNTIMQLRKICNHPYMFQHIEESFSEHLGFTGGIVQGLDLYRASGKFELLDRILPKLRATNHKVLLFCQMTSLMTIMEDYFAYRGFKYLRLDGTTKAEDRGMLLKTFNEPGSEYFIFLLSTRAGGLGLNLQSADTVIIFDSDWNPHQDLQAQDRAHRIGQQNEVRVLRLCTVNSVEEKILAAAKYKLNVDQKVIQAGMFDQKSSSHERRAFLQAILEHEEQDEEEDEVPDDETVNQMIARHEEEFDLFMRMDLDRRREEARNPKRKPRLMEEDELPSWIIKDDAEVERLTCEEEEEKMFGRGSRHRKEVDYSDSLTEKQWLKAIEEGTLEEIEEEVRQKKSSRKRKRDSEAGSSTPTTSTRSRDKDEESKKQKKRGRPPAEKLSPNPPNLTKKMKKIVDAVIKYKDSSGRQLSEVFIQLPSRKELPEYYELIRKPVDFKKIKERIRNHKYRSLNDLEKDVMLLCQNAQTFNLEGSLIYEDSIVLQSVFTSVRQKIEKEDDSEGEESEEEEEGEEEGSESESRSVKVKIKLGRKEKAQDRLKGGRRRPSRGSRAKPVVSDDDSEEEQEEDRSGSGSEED

Tests used:
[1] = target: T1, RAD21 (human (endogenous in MHCC-97H, SK-HEP-1, HepG2, HEK293T)) (UniProt O60216); assay: co-sedimentation; nuclear fractions of ARID1A WT and KO AB17 or MHCC-97H cells on 5 to 35% glycerol or 5 to 50% sucrose gradients, 16 h at 35,000 rpm, fractions immunoblotted
T1 sequence: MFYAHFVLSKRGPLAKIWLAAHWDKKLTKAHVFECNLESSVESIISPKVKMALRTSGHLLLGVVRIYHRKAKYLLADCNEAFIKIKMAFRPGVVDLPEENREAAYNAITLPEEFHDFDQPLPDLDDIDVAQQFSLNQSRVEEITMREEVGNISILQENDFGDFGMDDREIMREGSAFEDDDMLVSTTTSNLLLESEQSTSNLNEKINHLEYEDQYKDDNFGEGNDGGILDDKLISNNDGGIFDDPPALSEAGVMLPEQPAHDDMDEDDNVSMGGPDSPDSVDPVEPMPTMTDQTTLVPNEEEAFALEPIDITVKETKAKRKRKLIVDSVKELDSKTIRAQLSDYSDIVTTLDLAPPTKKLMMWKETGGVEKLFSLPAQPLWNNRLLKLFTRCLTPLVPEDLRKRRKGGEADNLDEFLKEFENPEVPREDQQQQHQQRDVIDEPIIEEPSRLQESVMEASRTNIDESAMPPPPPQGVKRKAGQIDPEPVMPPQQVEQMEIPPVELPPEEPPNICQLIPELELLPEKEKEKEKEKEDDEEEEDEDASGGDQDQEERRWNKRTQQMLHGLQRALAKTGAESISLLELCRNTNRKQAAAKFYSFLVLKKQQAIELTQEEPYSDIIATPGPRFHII

[2] = target: T1, RAD21 (human (endogenous in MHCC-97H, SK-HEP-1, HepG2, HEK293T)); assay: co-IP; endogenous proteins, nuclear extracts of human liver cancer cells (ARID1A WT and KO MHCC-97H; MHCC-97H, SK-HEP-1, HepG2); Protein G beads, washes with 300 mM NaCl lysis buffer, immunoblot
[3] = target: T2, HA-RAD21 (UniProt O60216); assay: co-IP; HEK293T cells transfected with differently tagged constructs (T7-ARID1A or BRG1-FLAG with HA-CTCF or HA-RAD21); IP with anti-T7, anti-Flag and anti-HA antibodies, immunoblot
T2 sequence: T1 sequence

[4] = target: SMC3 (human (endogenous in HEK293T)) (UniProt Q9UQE7); assay: co-IP; Flag-tagged BRG1-transfected HEK293T cells, partners not transfected; immunoblot
[5] = target: T1, RAD21 (human (endogenous in MHCC-97H, SK-HEP-1, HepG2, HEK293T)); assay: as above
[6] = target: T3, GST-RAD21 (UniProt O60216); assay: pull-down; purified GST or GST-RAD21 incubated with in vitro translated BRG1-Flag in binding buffer at 4 °C for 2 h, glutathione-Sepharose beads, five washes; detected with anti-BRG1 antibody; only the target purified
T3 sequence: T1 sequence

[7] = target: T4, Rad21 (mouse (endogenous in AB17, MEF)) (UniProt Q61550); assay: co-sedimentation; nuclear fractions of ARID1A WT and KO AB17 or MHCC-97H cells on 5 to 35% glycerol or 5 to 50% sucrose gradients, 16 h at 35,000 rpm, fractions immunoblotted
T4 sequence: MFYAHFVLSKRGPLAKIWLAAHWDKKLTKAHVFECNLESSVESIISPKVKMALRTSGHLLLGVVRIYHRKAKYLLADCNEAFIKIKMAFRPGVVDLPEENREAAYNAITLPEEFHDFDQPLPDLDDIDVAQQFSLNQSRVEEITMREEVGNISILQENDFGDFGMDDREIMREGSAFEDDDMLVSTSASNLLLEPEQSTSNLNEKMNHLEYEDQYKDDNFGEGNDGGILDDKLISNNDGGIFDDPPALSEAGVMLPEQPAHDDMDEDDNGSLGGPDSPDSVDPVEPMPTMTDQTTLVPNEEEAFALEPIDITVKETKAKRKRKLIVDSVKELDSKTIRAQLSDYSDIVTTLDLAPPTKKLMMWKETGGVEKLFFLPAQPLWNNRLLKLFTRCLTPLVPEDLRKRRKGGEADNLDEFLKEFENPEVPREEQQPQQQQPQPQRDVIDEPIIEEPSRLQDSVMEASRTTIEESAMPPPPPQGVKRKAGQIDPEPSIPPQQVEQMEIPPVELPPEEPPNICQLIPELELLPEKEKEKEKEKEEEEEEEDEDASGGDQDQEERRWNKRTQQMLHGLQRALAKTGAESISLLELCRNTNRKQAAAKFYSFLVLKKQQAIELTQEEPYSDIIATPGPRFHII

## BRG1 (from UniProt P51532 1-1647)
[1]
  binding: binds
[2]
  binding: binds

## BRG1-FLAG (from UniProt P51532 1-1647)
[3]
  binding: binds
[4]
  binding: no binding
[5]
  binding: binds

## BRG1-Flag, in vitro translated (from UniProt P51532 1-1647)
[6]
  binding: binds

## Brg1 (from UniProt Q3TKT4 1-1613)
[7]
  binding: binds
